Results: a collection of fitness landscapes (doi:10.1126/science.1257360)
This is one part of the list.

B1: PhoQ; a variant is named by its letters at X, in order, P23837 (parent)
chain: MKKLLRLFFPLSLRVRFLLATAAVVLVLSLAYGMVALIGYSVSFDKTTFRLLRGESNLFYTLAKWENNKLHVELPENIDKQSPTMTLIYDENGQLLWAQRDVPWLMKMIQPDWLKSNGFHEIEADVNDTSLLLSGDHSIQQQLQEVREDDDDAEMTHSVAVNVYPATSRMPKLTIVVVDTIPVELKSSYMVWSWFIYVLSANLLLVIPLLWVAAWWSLRPIEALAKEVRELEEHNRELLNPATTRELTSLVRNLNRLLKSERERYDKYRTTLTDLTHSLKTPLXXLQXXLRSLRSEKMSVSDAEPVMLEQISRISQQIGYYLHRASMRGGTLLSRELHPVAPLLDNLTSALNKVYQRKGVNISLDISPEISFVGEQNDFVEVMGNVLDNACKYCLEFVEISARQTDEHLYIVVEDDGPGIPLSKREVIFDRGQRVDTLRPGQGVGLAVAREITEQYEGKIVAGESMLGGARMEVIFGRQHSAPKDE

Variants of: B1
Experiment: enrichment ratio after two sorts for PhoP signalling (ratio (wild type AVST 3.29)); higher = more functional
Settings: with PhoP (E. coli)

| Variant | enrichment ratio |
| --- | --- |
| ACPN | ≤ 0.25 |
| TSKW | ≤ 0.25 |
| PNDT | ≤ 0.25 |
| LEKM | ≤ 0.25 |
| TSQA | 7.54 |
| AGIP | ≤ 0.25 |
| QCCA | ≤ 0.25 |
| YVWC | ≤ 0.25 |
| NFTM | ≤ 0.25 |
| GNAW | ≤ 0.25 |
| IVCE | ≤ 0.25 |
| WFCA | ≤ 0.25 |
| LWNG | ≤ 0.25 |
| WTSN | ≤ 0.25 |
| EYIY | ≤ 0.25 |
| HSQL | 3.85 |
| TSAT | 11.6 |
| FHLF | ≤ 0.25 |
| EHSP | ≤ 0.25 |
| MARE | ≤ 0.25 |
| IQEV | ≤ 0.25 |
| MCGK | ≤ 0.25 |
| ESPS | ≤ 0.25 |
| QMEG | ≤ 0.25 |

| Variant | enrichment ratio |
| --- | --- |
| WVWF | ≤ 0.25 |
| LNMS | ≤ 0.25 |
| NIYR | ≤ 0.25 |
| THVW | ≤ 0.25 |
| NLDT | ≤ 0.25 |
| SHEI | ≤ 0.25 |
| QILY | ≤ 0.25 |
| MVVR | ≤ 0.25 |
| KSLR | ≤ 0.25 |
| RDTL | ≤ 0.25 |
| AEYF | ≤ 0.25 |
| HQHY | ≤ 0.25 |
| ATWN | ≤ 0.25 |
| NTLS | ≤ 0.25 |
| RLSM | ≤ 0.25 |
| VFFD | ≤ 0.25 |
| LHLD | ≤ 0.25 |
| NHGS | ≤ 0.25 |
| WNAK | ≤ 0.25 |
| HDIS | ≤ 0.25 |
| CFCC | ≤ 0.25 |
| IEQK | ≤ 0.25 |
| LESV | ≤ 0.25 |
| QVFD | ≤ 0.25 |

| Variant | enrichment ratio |
| --- | --- |
| SFMT | ≤ 0.25 |
| VSHN | ≤ 0.25 |
| SMIC | ≤ 0.25 |
| DLAD | ≤ 0.25 |
| ILHM | ≤ 0.25 |
| TGHW | ≤ 0.25 |
| MRSL | ≤ 0.25 |
| KPTR | ≤ 0.25 |
| FGLK | 1.96 |
| NWAY | ≤ 0.25 |
| RDYY | ≤ 0.25 |
| QQPY | ≤ 0.25 |
| AVAC | 4.94 |
| QTVM | ≤ 0.25 |
| QYTS | ≤ 0.25 |
| IGTS | ≤ 0.25 |
| RLIS | ≤ 0.25 |
| VVWK | ≤ 0.25 |
| HILA | ≤ 0.25 |
| WSQV | ≤ 0.25 |
| SKTE | ≤ 0.25 |
| ACYT | ≤ 0.25 |
| TIIH | ≤ 0.25 |
| PHPH | ≤ 0.25 |

| Variant | enrichment ratio |
| --- | --- |
| VLCC | ≤ 0.25 |
| ESAV | 2.02 |
| YDNG | ≤ 0.25 |
| DGDT | ≤ 0.25 |
| RCPG | ≤ 0.25 |
| DDVD | ≤ 0.25 |
| FKNA | ≤ 0.25 |
| SAHD | ≤ 0.25 |
| YGIQ | ≤ 0.25 |
| MATK | ≤ 0.25 |
| SFAL | ≤ 0.25 |
| GLGE | ≤ 0.25 |
| WTKG | ≤ 0.25 |
| HWVL | ≤ 0.25 |
| NSIQ | ≤ 0.25 |
| RDQR | ≤ 0.25 |
| PDDL | ≤ 0.25 |
| SLTF | 12.2 |
| VRIC | ≤ 0.25 |
| GWGY | ≤ 0.25 |
| TQTC | 18.9 |
| DRVA | ≤ 0.25 |
| GAPP | ≤ 0.25 |
| KYRY | ≤ 0.25 |

| Variant | enrichment ratio |
| --- | --- |
| YYHW | ≤ 0.25 |
| SEWN | 7.57 |
| NMKE | ≤ 0.25 |
| HNKD | ≤ 0.25 |
| DHLP | ≤ 0.25 |
| PAQF | ≤ 0.25 |
| MLAT | ≤ 0.25 |
| VTHN | ≤ 0.25 |
| YLVK | ≤ 0.25 |
| IMNQ | ≤ 0.25 |
| ISMD | ≤ 0.25 |
| VFEG | 0.318 |
| PARS | ≤ 0.25 |
| FACI | 0.59 |
| KQAN | ≤ 0.25 |
| QIMH | ≤ 0.25 |
| SCDK | ≤ 0.25 |
| AIFV | ≤ 0.25 |
| DTWC | ≤ 0.25 |
| VPAN | ≤ 0.25 |
| LYFW | ≤ 0.25 |
| MEGL | 6.83 |
| WGRK | ≤ 0.25 |
| EKFM | ≤ 0.25 |

| Variant | enrichment ratio |
| --- | --- |
| QYTW | ≤ 0.25 |
| LICN | ≤ 0.25 |
| MIDL | 3.03 |
| NKME | ≤ 0.25 |
| RHKY | ≤ 0.25 |
| ETYE | ≤ 0.25 |
| NKCF | ≤ 0.25 |
| VSDC | ≤ 0.25 |
| LWCI | ≤ 0.25 |
| WGHY | ≤ 0.25 |
| YNSW | ≤ 0.25 |
| QTAA | ≤ 0.25 |
| ANYV | ≤ 0.25 |
| VMFQ | ≤ 0.25 |
| PRGG | ≤ 0.25 |
| WFFD | ≤ 0.25 |
| SVDF | ≤ 0.25 |
| EEFQ | ≤ 0.25 |
| PNNH | ≤ 0.25 |
| KQTS | ≤ 0.25 |
| PCVM | ≤ 0.25 |
| YSCY | ≤ 0.25 |
| PRGR | ≤ 0.25 |
| GFAD | ≤ 0.25 |

| Variant | enrichment ratio |
| --- | --- |
| WKLP | ≤ 0.25 |
| TWIR | ≤ 0.25 |
| MGEN | ≤ 0.25 |
| AYSH | ≤ 0.25 |
| LWIT | ≤ 0.25 |
| KACW | ≤ 0.25 |
| FESC | ≤ 0.25 |
| LKSK | ≤ 0.25 |
| AAHR | ≤ 0.25 |
| GNTT | 2.98 |
| RLGC | ≤ 0.25 |
| HNQD | ≤ 0.25 |
| NWYT | ≤ 0.25 |
| ALCI | 9.33 |
| YFTP | ≤ 0.25 |
| LVHW | ≤ 0.25 |
| LTKV | ≤ 0.25 |
| ARNS | ≤ 0.25 |
| YTQH | ≤ 0.25 |
| RGKD | ≤ 0.25 |
| YGVS | 0.253 |
| YLVG | ≤ 0.25 |
| AASQ | 3.49 |
| QWGS | ≤ 0.25 |

| Variant | enrichment ratio |
| --- | --- |
| PIKN | ≤ 0.25 |
| YDCI | ≤ 0.25 |
| QSGY | 6.88 |
| WRWD | ≤ 0.25 |
| AEAY | 39.2 |
| QFRH | ≤ 0.25 |
| WMLT | ≤ 0.25 |
| RWQS | ≤ 0.25 |
| ESHL | ≤ 0.25 |
| LLVA | ≤ 0.25 |
| PADF | ≤ 0.25 |
| SLTN | 7.41 |
| TKFW | ≤ 0.25 |
| VYII | ≤ 0.25 |
| QLHN | ≤ 0.25 |
| RRQD | ≤ 0.25 |
| SYVL | ≤ 0.25 |
| HVEG | ≤ 0.25 |
| TWEG | ≤ 0.25 |
| IFQP | ≤ 0.25 |
| RLPK | ≤ 0.25 |
| IKYY | ≤ 0.25 |
| DIMY | ≤ 0.25 |
| EEPF | ≤ 0.25 |

| Variant | enrichment ratio |
| --- | --- |
| LHGA | ≤ 0.25 |
| VLGY | ≤ 0.25 |
| RCPD | ≤ 0.25 |
| RARD | ≤ 0.25 |
| GYEF | ≤ 0.25 |
| YTVT | ≤ 0.25 |
| VAGD | ≤ 0.25 |
| AFSI | ≤ 0.25 |
| DMQV | ≤ 0.25 |
| VYPK | ≤ 0.25 |
| YGNA | ≤ 0.25 |
| FQAS | ≤ 0.25 |
| RMQH | ≤ 0.25 |
| GHNS | ≤ 0.25 |
| LDDW | ≤ 0.25 |
| MQPA | ≤ 0.25 |
| IQHG | ≤ 0.25 |
| IRAE | ≤ 0.25 |
| WAKR | ≤ 0.25 |
| KDTD | ≤ 0.25 |
| SAWP | ≤ 0.25 |
| FQHR | ≤ 0.25 |
| AHRE | ≤ 0.25 |
| EMSP | ≤ 0.25 |

| Variant | enrichment ratio |
| --- | --- |
| HKKP | ≤ 0.25 |
| WQWV | ≤ 0.25 |
| LICV | ≤ 0.25 |
| AYRM | ≤ 0.25 |
| LTRP | ≤ 0.25 |
| HNGA | ≤ 0.25 |
| QCKI | ≤ 0.25 |
| QDDP | ≤ 0.25 |
| CSMS | ≤ 0.25 |
| PYEM | ≤ 0.25 |
| YIFS | ≤ 0.25 |
| WYYI | ≤ 0.25 |
| VFSW | ≤ 0.25 |
| HHIR | ≤ 0.25 |
| IGHT | ≤ 0.25 |
| SKEG | ≤ 0.25 |
| DTTT | ≤ 0.25 |
| FNQF | ≤ 0.25 |
| YTLI | 12.8 |
| NLGI | ≤ 0.25 |
| VSDT | ≤ 0.25 |
| LKEQ | ≤ 0.25 |
| GTCH | 4.08 |
| NDGM | ≤ 0.25 |

| Variant | enrichment ratio |
| --- | --- |
| DRAQ | ≤ 0.25 |
| EGLA | ≤ 0.25 |
| NFTL | ≤ 0.25 |
| YCSW | ≤ 0.25 |
| KLYF | ≤ 0.25 |
| LHLA | ≤ 0.25 |
| ECSE | ≤ 0.25 |
| VVFY | ≤ 0.25 |
| PPKT | ≤ 0.25 |
| YAGR | ≤ 0.25 |
| REWF | ≤ 0.25 |
| MFHI | ≤ 0.25 |
| NTVR | ≤ 0.25 |
| TSKS | ≤ 0.25 |
| NVLS | ≤ 0.25 |
| KFMP | ≤ 0.25 |
| YKDT | ≤ 0.25 |
| LFQA | ≤ 0.25 |
| ICAQ | ≤ 0.25 |
| PIDD | ≤ 0.25 |
| YSPN | ≤ 0.25 |
| NTFS | ≤ 0.25 |
| PFFI | ≤ 0.25 |
| YWPD | ≤ 0.25 |

| Variant | enrichment ratio |
| --- | --- |
| GYWI | ≤ 0.25 |
| EHRM | ≤ 0.25 |
| PGIC | ≤ 0.25 |
| NCSH | ≤ 0.25 |
| DYID | ≤ 0.25 |
| VQHR | ≤ 0.25 |
| AQSR | ≤ 0.25 |
| HDKR | ≤ 0.25 |
| VSQE | ≤ 0.25 |
| TARP | ≤ 0.25 |
| MSRT | ≤ 0.25 |
| DLHS | ≤ 0.25 |
| MDFK | ≤ 0.25 |
| KEVE | ≤ 0.25 |
| FPKE | ≤ 0.25 |
| PWKW | ≤ 0.25 |
| TWYI | ≤ 0.25 |
| PYFN | ≤ 0.25 |
| IKKV | ≤ 0.25 |
| PEVL | ≤ 0.25 |
| GHQC | ≤ 0.25 |
| DVFR | ≤ 0.25 |
| IQGM | ≤ 0.25 |
| TPGS | ≤ 0.25 |

| Variant | enrichment ratio |
| --- | --- |
| ATTH | 8.31 |
| EYII | ≤ 0.25 |
| NEQS | ≤ 0.25 |
| PWCF | ≤ 0.25 |
| HIAC | ≤ 0.25 |
| EAWW | ≤ 0.25 |
| IEVN | ≤ 0.25 |
| RCMA | ≤ 0.25 |
| WWVF | ≤ 0.25 |
| MFDQ | ≤ 0.25 |
| YMGQ | ≤ 0.25 |
| ISIM | ≤ 0.25 |
| HHTV | ≤ 0.25 |
| NDGQ | ≤ 0.25 |
| VFVP | ≤ 0.25 |
| KPWQ | ≤ 0.25 |
| TFAF | ≤ 0.25 |
| PTKA | ≤ 0.25 |
